# From the supplement of paper PMC7826260
# This is one part of the list. Cleavage of a single-stranded DNA pool by Rep nickase domains was read by sequencing (1 h at 37 °C, 3 µM enzyme); the outer parts of the 90-letter strands are left off. Numbers give uncut DNA relative to the enzyme-free pool, as log2; uncut sequences lie near 0, cut ones below; no hit call is given. Counts are relative to all reads; uncut strands gain when others are lost, and binding without cutting may add a little.
# Tested on: T1, Rep nickase domain of tomato golden mosaic virus
# T1 sequence (residues 1-124, tag not shown): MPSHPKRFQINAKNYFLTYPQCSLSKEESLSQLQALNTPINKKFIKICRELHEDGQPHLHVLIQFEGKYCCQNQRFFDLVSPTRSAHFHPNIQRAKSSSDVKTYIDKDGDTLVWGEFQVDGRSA
# Assay: uncleaved DNA left, log2 of reads against the no-enzyme library (log2 ratio); higher = less cleavage (more negative = more Rep cleavage of the k-mer); sequences stand for … in CTCGTCCG…ACCGGAGA
# Experimental: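 A pool of 90-nt single-stranded DNAs with seven random bases just before the constant AC of the nick site (name = the seven bases) was cut by 3 µM recombinant His6-SUMO-tagged Rep nickase domain (300 nM DNA, 50 mM HEPES pH 8.0, 50 mM NaCl, 1 mM MnCl2, 1 h, 37 °C, three replicates). Uncut DNA was amplified and sequenced.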
row,Sequence,uncleaved DNA left (log2)
1,GGCTACT,0.0119
2,TTTTGCC,-0.116
3,AAGCTTC,0.0139
4,TTTTTAA,0.138
5,TTCCTGA,-0.0352
6,ACGCCGA,-0.0335
7,GTTTGTC,0.0887
8,TTTAATC,0.0519
9,GGTTCTC,-0.147
10,GGCCTAC,0.0184
11,CTTCACG,-0.102
12,CACCCCC,-0.168
13,TCTTCCG,-0.284
14,CACTCAG,0.0527
15,AGGAAGA,0.0968
16,CTACTGA,0.0676
17,CTACGGT,0.108
18,AAGCTGT,0.297
19,TAGCGGC,0.175
20,AATGTGC,-0.154

row,Sequence,uncleaved DNA left (log2)
1,GAGTCTT,-0.168
2,TTGCACG,-0.0861
3,CCACTTA,0.11
4,CGCTTTA,0.159
5,CCCTTTG,0.0291
6,CCGATCG,-0.188
7,AACCTTC,-0.132
8,GAAAGCG,-0.00673
9,GCAGAAG,-0.048
10,TTTAGCA,-0.0327
11,TGTCCTT,-0.206
12,ACTGATG,0.0352
13,CGGCATT,-0.363
14,CTCCAGT,-0.0951
15,GAATGAC,-0.035
16,ACCGTCA,-0.0322
17,TGCGTTG,0.0655
18,TGGGGGG,0.0761
19,AGGTACC,-0.018
20,TTTTGCA,-0.123
